Data from PubChem BioAssay AID1240 (Sanford-Burnham Center for Chemical Genomics, 2008).
Screen size: about 50,000 compounds; about 800 (1.6%) showed an effect of 50% or more. This is one part of the list.

target: Bcl-2-like protein 10 (Homo sapiens) (UniProt Q9HD36); assay: Phenotype converters, Bcl-B/TR3 peptide binding displacement, primary biochemical FP (AID 1240); details: GST-Bcl-B / FITC-TR3 peptide fluorescence polarization; stronger effect = higher value; compound at 3.75 mg/L;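 further: 0% = Bcl-B with tracer peptide and DMSO and 100% = tracer peptide lacking Bcl-B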
Chain of UniProt Q9HD36 (Q9HD36 whole entry, looked up): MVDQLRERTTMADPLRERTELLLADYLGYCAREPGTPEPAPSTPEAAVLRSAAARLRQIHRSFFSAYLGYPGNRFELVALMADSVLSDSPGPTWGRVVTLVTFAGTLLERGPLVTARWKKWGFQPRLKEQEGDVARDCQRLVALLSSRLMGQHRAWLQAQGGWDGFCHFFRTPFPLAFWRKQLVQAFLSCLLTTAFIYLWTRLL

Q: For `c1ccc(Cc2nc(-c3ccncc3)no2)cc1`, which displacement is on record?
A: 5.5%

Q: How did the displacement turn out when `Cc1ccc(C2CC(C(F)(F)F)n3nc(C(=O)NCc4cccs4)cc3N2)cc1` (stereo unspecified) was run?
A: 8.3%

Q: `COc1ccc(N=Cc2sccc2C)c([N+](=O)[O-])c1` was tested. Which displacement did it give?
A: 8.1%

Q: With `CCCC1=C(C(=O)OCC)C(c2ccc(OC)c(OC)c2)NC(=O)N1` (stereo unspecified) as the molecule, how does the displacement read?
A: -7.7%

Q: How did the displacement turn out when `COc1cccc(/C=C2\SC(=S)N(C3CCCCC3)C2=O)c1O` was run?
A: -3.3%

Q: How did the displacement turn out when `COCCCN1C(=O)/C(=C\c2ccc(Br)cc2)C(C(=O)OC)=C1C` was run?
A: -14.1%

Q: With `O=C1CC(c2ccc(F)c(Br)c2)c2ccc3ccccc3c2N1` (stereo unspecified) as the molecule, how does the displacement read?
A: -10.6%

Q: Which displacement does the source give for `CCC(Sc1nc2ccccc2s1)C(=O)Nc1cccc2ccccc12` (stereo unspecified) here?
A: -2.9%

Q: With `C/C(=N\N1C(=O)CN(Cc2ccccc2)C1c1ccc(Br)cc1)c1ccccc1` (stereo unspecified) as the molecule, how does the displacement read?
A: -4.2%

Q: `O=c1c2c3c(sc2n2c(=S)[nH]nc2n1-c1ccccc1)CCCCC3` was tested. Which displacement did it give?
A: -7%

Q: For `Oc1c(Br)cc(/C=N/Nc2nnc3c(n2)[nH]c2ccccc23)c(Br)c1O`, which displacement is on record?
A: 48.1%

Q: How did the displacement turn out when `CC1=C(C(=O)Nc2cccc(Cl)c2C)C(c2ccc([N+](=O)[O-])cc2)NC(=S)N1` (stereo unspecified) was run?
A: 13.1%

Q: Which displacement does the source give for `COCCNC(=O)c1ccc(NC(C)=O)cc1` here?
A: 9.6%

Q: How did the displacement turn out when `O=C(Nc1ccc(Cl)c(-c2nc3ccccc3o2)c1)c1ccc2ccccc2c1` was run?
A: -23.4%

Q: Which displacement does the source give for `Cc1cc(Cl)ccc1NC(=O)c1cccc(I)c1` here?
A: 9.4%

Q: With `CCOC(=O)C(C)Oc1cc2oc(=O)cc(-c3ccccc3)c2cc1CC` (stereo unspecified) as the molecule, how does the displacement read?
A: 11%

Q: For `O=C(c1ccc(Br)cc1)N1CCN(c2ccc(F)cc2)CC1`, which displacement is on record?
A: -8.7%

Q: With `CCCOc1ccc2c(C)cc(=O)oc2c1` as the molecule, how does the displacement read?
A: 1.2%

Q: Which displacement does the source give for `O=C1c2cccc3cccc(c23)C(=O)N1CCS(=O)(=O)OCC(F)(F)F` here?
A: 7.8%

Q: `Cc1ccc(-c2noc(C3CCCCC3)n2)cc1` was tested. Which displacement did it give?
A: 11.9%

Q: With `O=C(COc1ccc(Cl)cc1)Nc1ccccc1[N+](=O)[O-]` as the molecule, how does the displacement read?
A: 20%

Q: With `Cc1ccc(C)c(NC(=O)CSc2ccccn2)c1` as the molecule, how does the displacement read?
A: 15.7%

Q: Which displacement does the source give for `O=C(NCCOC(=O)c1ccccc1)c1ccc([N+](=O)[O-])cc1` here?
A: 11%

Q: `COC(=O)C1=C(C)NC(=O)CC1c1cccc(OC)c1OC` (stereo unspecified) was tested. Which displacement did it give?
A: 9.9%

Q: For `CC1=NN(c2ccccc2)C(=O)/C1=C/c1cc(C)n(-c2cccnc2)c1C`, which displacement is on record?
A: -3.2%

Q: How did the displacement turn out when `COc1ccc(NC(=O)Cc2nc3ccccc3[nH]2)cc1` was run?
A: -6.7%

Q: Which displacement does the source give for `C1=CCC(/C=N/N=C(/c2ccccc2)C23CN4CN(CN(C4)C2)C3)CC1` (stereo unspecified) here?
A: 0.9%

Q: With `O=c1c2c(nc3cc(-c4cccs4)[nH]n13)CCC2` as the molecule, how does the displacement read?
A: 5.7%

Q: For `Cc1cccc(N2C(=O)/C(=C/c3cc(C)n(C)c3C)C(=O)NC2=S)c1C`, which displacement is on record?
A: 111%

Q: How did the displacement turn out when `Cc1cc(C)c(C(=O)/C(=C/c2ccccc2)c2ccccc2)c(=O)[nH]1` was run?
A: 6.6%

Q: How did the displacement turn out when `COc1ccc(S(=O)(=O)Nc2ccccc2C(F)(F)F)cc1` was run?
A: -6.4%

Q: `CCOc1ccc(C(=O)Nc2cc(C)ccn2)cc1Br` was tested. Which displacement did it give?
A: -1.9%

Q: `COC(=O)C1=C(C)NC(=O)NC1c1ccc(OC)c(OC)c1OC` (stereo unspecified) was tested. Which displacement did it give?
A: 8.5%

Q: `Cc1ccc(CC2CC(=O)N(c3ccc(F)cc3)C2=O)cc1` (stereo unspecified) was tested. Which displacement did it give?
A: 11%

Q: Which displacement does the source give for `CCC(=O)N1N=C2c3ccc(OC)cc3CCC2C1c1ccc(N(C)C)cc1` (stereo unspecified) here?
A: 9.1%

Q: How did the displacement turn out when `CCCOc1cccc(C(=O)Nc2ccccc2C(F)(F)F)c1` was run?
A: -5.3%

Q: `COC(=O)c1ccccc1NC(=O)c1ccc(Cl)c([N+](=O)[O-])c1` was tested. Which displacement did it give?
A: 9.4%

Q: `O=c1oc(-c2ccccc2Cl)nc2sc3c(c12)CCCCC3` was tested. Which displacement did it give?
A: 15%

Q: `COc1ccc(NC(=O)/C(C#N)=C/c2cn(Cc3ccccc3C#N)c3ccccc23)cc1` was tested. Which displacement did it give?
A: 3.2%

Q: With `COC(=O)c1ccc(C(=O)OC)c(NC(=O)c2ccccc2OC)c1` as the molecule, how does the displacement read?
A: -9.5%

Q: Which displacement does the source give for `O=C(NNC(=O)C1CCCO1)c1cccc(F)c1` (stereo unspecified) here?
A: -18.7%

Q: `Cc1ccc2ccc3cccc(S(=O)(=O)O)c3c2n1` was tested. Which displacement did it give?
A: 6.3%

Q: How did the displacement turn out when `CN1C(=O)/C(=C/C=C/c2ccco2)SC1=S` was run?
A: 23.2%

Q: How did the displacement turn out when `O=C1C(=O)c2ccccc2C(O)=C1[N+](=O)[O-]` was run?
A: 16.8%

Q: `O=C(COc1cc(Cl)ccc1Cl)Nc1ccc2c(c1)OCCO2` was tested. Which displacement did it give?
A: 0.3%

Q: Which displacement does the source give for `C=CCn1c(=N)n(CC(O)c2ccc(OCC)cc2)c2ccccc21` (stereo unspecified) here?
A: -9.5%

Q: How did the displacement turn out when `CC(C)(C)c1cc(C2=C(Cl)C(=O)c3ccccc3C2=O)cc(C(C)(C)C)c1O` was run?
A: 6.9%

Q: How did the displacement turn out when `O=C(Cc1cccc2ccccc12)N/N=C/c1cc(I)cc(I)c1O` was run?
A: 7.8%

Q: For `COc1nccnc1NS(=O)(=O)c1ccc(NC(=O)c2ccc(Br)cc2)cc1`, which displacement is on record?
A: -0.3%

Q: How did the displacement turn out when `CS(=O)(=O)NCCNc1ccc([N+](=O)[O-])cc1` was run?
A: 6.3%

Q: How did the displacement turn out when `CCOc1ccccc1C(=O)Nc1cc(Cl)ccc1C` was run?
A: -1.9%

Q: Which displacement does the source give for `CCCC(C)NS(=O)(=O)c1ccccc1[N+](=O)[O-]` (stereo unspecified) here?
A: 3%

Q: How did the displacement turn out when `COc1ccc(Nc2cc(C)nc3c2ccc2ccccc23)cc1OC` was run?
A: -5.1%

Q: How did the displacement turn out when `O=C1NN(c2ccc(Cl)c(Cl)c2)C(=O)/C1=C/c1ccc2c(c1)OCO2` was run?
A: -4.4%

Q: With `O=C(Cc1ccccc1)NC(NC(=S)Nc1cc(Cl)ccc1Cl)C(Cl)(Cl)Cl` (stereo unspecified) as the molecule, how does the displacement read?
A: 15.1%

Q: How did the displacement turn out when `COc1ccc(OCCCCOc2ccc(Cl)c(C)c2)cc1` was run?
A: 17.4%

Q: `O=C(NCCO)c1ccc(-c2nnc(N3CCOCC3)c3ccccc23)cc1` was tested. Which displacement did it give?
A: 2.8%

Q: For `Cc1ccc(Cl)cc1NC(=O)C1CC(=O)N(c2cccc([N+](=O)[O-])c2)C1` (stereo unspecified), which displacement is on record?
A: -16.2%

Q: Which displacement does the source give for `CCOc1ccc(Nc2ncnc3c2cnn3-c2ccccc2)cc1` here?
A: -2.1%

Q: For `CC(=O)C1=C(Nc2ccc(Br)cc2)CC(C)(O)C(C(C)=O)C1c1ccc([N+](=O)[O-])cc1` (stereo unspecified), which displacement is on record?
A: -12.7%

Q: How did the displacement turn out when `CCN(CC)CCSc1nc2sc3c(c2c(=O)n1-c1ccc(C)cc1)CCCC3` was run?
A: -6.5%

Q: How did the displacement turn out when `Cc1ccc(S(=O)(=O)NCCOc2ccccc2)cc1[N+](=O)[O-]` was run?
A: 12.5%

Q: How did the displacement turn out when `CS(=O)(=O)N1CCN(Cc2ccccn2)CC1` was run?
A: -24.7%

Q: With `Nc1ccc(C(=O)Nc2cccc3ccccc23)cc1` as the molecule, how does the displacement read?
A: -4.6%

Q: With `COc1ccc(/C=C2\SC(=O)N(CCC(=O)Nc3ccccc3)C2=O)cc1OC` as the molecule, how does the displacement read?
A: 40.2%

Q: With `CC1(C)Cc2c(sc3[nH]c(=O)n(-c4ccccc4)c(=O)c23)CO1` as the molecule, how does the displacement read?
A: -11.2%

Q: For `COc1ccc(N(CC(=O)Nc2ccc3ccccc3c2)S(=O)(=O)c2ccccc2)cc1`, which displacement is on record?
A: 11.2%

Q: With `CCOC(=O)C1C(=O)C=C(c2ccc(C)cc2)CC1c1ccccc1` (stereo unspecified) as the molecule, how does the displacement read?
A: -9.4%

Q: How did the displacement turn out when `Cc1ccc(N=Cc2c(O)ccc3ccccc23)nc1` was run?
A: 38.1%

Q: For `Cc1ccccc1NC(=O)/C(=C\c1ccccc1Cl)NC(=O)c1ccccc1`, which displacement is on record?
A: 0.8%

Q: For `Cc1ccc(S(=O)(=O)N2CCN(CCNC(=O)C(=O)Nc3ccc(Cl)cc3)CC2)cc1`, which displacement is on record?
A: 8%
